Reference: PMC4336329 (PLoS ONE, 2015)
In all, about 310,000 compounds went through this assay and about 14,000 (4.5%) showed an effect of 50% or more. Effects have a minus sign here. The list shows a part of the results.

Each molecule was assayed against human ether-à-go-go-related gene (hERG) potassium channel (human, UniProt Q12809) (assay: primary screen, population patch clamp on CHO cells stably expressing hERG).
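Note: peak tail current of the secondary pulse compared with the same well before compound.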

Sequence of human ether-à-go-go-related gene (hERG) potassium channel (Q12809 whole entry, looked up): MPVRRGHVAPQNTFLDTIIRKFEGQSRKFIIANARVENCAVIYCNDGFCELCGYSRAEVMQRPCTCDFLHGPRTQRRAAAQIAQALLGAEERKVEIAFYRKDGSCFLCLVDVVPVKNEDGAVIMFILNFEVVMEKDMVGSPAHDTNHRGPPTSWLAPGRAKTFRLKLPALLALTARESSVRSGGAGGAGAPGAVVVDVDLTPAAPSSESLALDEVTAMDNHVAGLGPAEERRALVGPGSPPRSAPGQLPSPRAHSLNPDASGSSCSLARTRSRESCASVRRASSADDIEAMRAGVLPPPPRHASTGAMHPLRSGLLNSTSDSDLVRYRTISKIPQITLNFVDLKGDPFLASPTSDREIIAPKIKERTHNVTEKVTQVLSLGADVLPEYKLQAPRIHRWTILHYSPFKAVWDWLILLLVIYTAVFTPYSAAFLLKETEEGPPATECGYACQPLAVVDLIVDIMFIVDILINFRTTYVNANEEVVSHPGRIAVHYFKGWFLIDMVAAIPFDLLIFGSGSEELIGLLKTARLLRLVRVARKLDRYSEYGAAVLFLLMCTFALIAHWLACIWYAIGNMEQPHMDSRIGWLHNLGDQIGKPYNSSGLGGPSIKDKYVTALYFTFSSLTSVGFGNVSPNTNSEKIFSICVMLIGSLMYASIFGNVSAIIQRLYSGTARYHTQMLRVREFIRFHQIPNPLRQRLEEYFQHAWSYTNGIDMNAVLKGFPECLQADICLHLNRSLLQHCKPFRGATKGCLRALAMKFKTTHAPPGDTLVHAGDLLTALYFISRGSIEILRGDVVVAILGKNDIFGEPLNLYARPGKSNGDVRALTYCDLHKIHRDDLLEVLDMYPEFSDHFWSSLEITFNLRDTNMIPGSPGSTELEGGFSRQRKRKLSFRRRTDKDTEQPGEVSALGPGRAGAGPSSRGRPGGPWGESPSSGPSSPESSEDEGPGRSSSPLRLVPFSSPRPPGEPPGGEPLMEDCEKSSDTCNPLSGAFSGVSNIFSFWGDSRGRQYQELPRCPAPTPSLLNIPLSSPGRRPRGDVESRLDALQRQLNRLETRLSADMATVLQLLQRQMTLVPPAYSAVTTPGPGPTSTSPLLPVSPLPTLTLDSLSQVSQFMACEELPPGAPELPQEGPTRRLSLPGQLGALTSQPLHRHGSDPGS

SMILES	hERG current change (%, negative = inhibition) at 10uM
CCOC(=O)/C(=C\Nc1ccc(OC(F)(F)F)cc1)Sc1ncc(C(F)(F)F)cc1Cl	12.3%
CCC(C)(C)NC(=O)C(c1ccc(F)cc1)N(Cc1ccc(OC)cc1)C(=O)c1cnccn1 (stereo not shown)	-11.8%
COc1ncccc1-c1nnn(-c2ccc(F)cc2)n1	-4.4%
CCOC(=O)c1ccc(-c2ccc(C3Nc4ccccc4C(=O)N3O)o2)cc1 (stereo not shown)	11.2%
Cl.N#Cc1ccc(OCC(=O)N2CCN(Cc3ccc4c(c3)OCO4)CC2)cc1	-68.1%
CNc1nc(Cl)c(SC)c(N2CCOCC2)n1	-6.75%
COc1cc(NS(=O)(=O)c2ccc(NC(C)=O)cc2)ncn1	0.81%
CC(C(=O)O)n1ncc2ccccc2c1=O (stereo not shown)	6.13%
CN(c1ccccc1)S(=O)(=O)c1ccc(C(=O)Nc2nnc(C3CC3)s2)cc1	-11.2%
Cc1nnc(SCC(=O)NC2CCCCC2)s1	10.7%
Cc1ccc(OCCNC(=O)CNC(=O)c2ccc(C)c(C)c2)cc1	-9.96%
CCCNc1nc2c(c(=O)[nH]c(=O)n2C)n1Cc1cccc(Br)c1	7.23%
O=C1C2CCCN2c2ccc(S(=O)(=O)N3CCOCC3)cc2N1Cc1ccccc1F (stereo not shown)	6.99%
CN(c1ccccn1)c1ncnc2[nH]ncc12	-9.28%
CC12CCC(O)CC1=CCC1C2CCC2(C)C1CCC21CCC(=O)O1 (stereo not shown)	2.62%
Cc1ccc(NC(=O)COC(=O)Cc2csc(-c3cccc(F)c3)n2)cc1C	2.69%
Cc1ccc(Cl)cc1NC(=O)c1ccc(Cn2cc(Cl)cn2)cc1	11%
CCC(CC)C(=O)Nc1ccccc1-n1cccc1	6.37%
CCOC(=O)c1sc2ncn(/N=C/N(C)C)c(=O)c2c1C	-2.08%
COc1cc(C(=O)Nc2cccc(C(C)=O)c2)cc(OC)c1OC	7.4%

SMILES	hERG current change (%, negative = inhibition) at 10uM
Cc1ccc(OC(=O)COc2ccccc2C)c(-n2nc3ccccc3n2)c1	-8.27%
CCOC(=O)C1CCN(S(=O)(=O)c2ccc(-n3cnnn3)c(C)c2)CC1	-19.5%
O=C(NC1=NCCS1)[C@H](Cc1ccccc1)N1C(=O)c2ccccc2C1=O	-4.73%
CC(=O)c1cccc(NC(=O)C2CCCN(S(=O)(=O)c3cccc4cccnc34)C2)c1 (stereo not shown)	2.6%
Cc1ccc2nc(C)c(C(=O)N/N=C/c3ccco3)cc2c1	-14.3%
CCOc1ccc(C2CC(c3ccc(OC)cc3)n3ncnc3N2)cc1 (stereo not shown)	-11%
COc1ccccc1N1CCN(C(=O)c2sc3nc(-c4ccc(F)cc4)cn3c2C)CC1	-34%
O=Cc1cccn1-c1ccc(O)cc1	11.3%
Cc1c(Br)c(C(F)(F)F)nn1CC(=O)N(C)C1CCCCC1	7.18%
CNC(=O)Nc1ccccc1F	14.3%
CC1(C)Cc2c(sc(NC(=O)c3ccco3)c2C#N)CO1	-2.37%
CC1(C)CC2(CCO1)OC(=O)CC2C(=O)NCCc1ccccc1 (stereo not shown)	19.3%
O=C(NC(=S)Nc1ncccn1)c1ccc(F)cc1	15.9%
Cl.c1ccc(C2NCCc3ccccc32)cc1 (stereo not shown)	-12.6%
CCc1ccc(OCC(=O)N2CC(C(=O)OC)Oc3ccccc32)cc1 (stereo not shown)	-17.2%
CCc1ccccc1NC(=O)c1cnn(-c2ccccc2)c1C	-2.18%
CC(=O)N1CCN(C(=O)c2cc(S(=O)(=O)NCc3ccccc3)ccc2C)CC1	10.4%
CN(c1ccccc1)S(=O)(=O)c1ccc(NC(=O)C2CCCCC2C(=O)O)cc1 (stereo not shown)	12.3%
CC(CCN1C(Nc2ccccc2)=NC[C@@H]1C)c1ccccc1 (stereo partly shown)	-52.4%
COCc1cc(C)nc(N/N=C/c2ccc(Cl)c(Cl)c2)c1C#N	12.4%

SMILES	hERG current change (%, negative = inhibition) at 10uM
CC1(C)CC(=O)c2c(nn(-c3ccccc3)c2N)C1	16%
COc1ccc(OC)c(-n2c(=S)[nH]c3cc(C(=O)N4CCCCC4)ccc3c2=O)c1	13.6%
Cc1cc(Br)c(Cl)cc1NC(=O)CN1C(=O)C2C3CC(c4ccccc4)C(C3)C2C1=O (stereo not shown)	5.48%
O=C(CCN1C(=O)c2ccccc2S1(=O)=O)Nc1ccc(F)c(F)c1F	-2.68%
Cn1nc(-c2ccccc2)c(-c2nc(-c3cccc(Cl)c3)no2)c1Cl	4.96%
COc1cc([N+](=O)[O-])cc(/C=N/NC(=O)C(C)Nc2ccccc2C)c1O (stereo not shown)	19.3%
O=C(Nc1ccc2c(c1)CCC2)c1ccccc1Br	-12.9%
Cc1ccc(NC(=O)CSc2n[nH]c(-c3cccnc3)n2)cc1Cl	-25.5%
O=C(CSc1nnc(CNC(=O)c2ccco2)o1)Nc1ccc(Br)cc1	-19.7%
COc1ccc(N(C)S(=O)(=O)c2cccc3nsnc23)cc1	9.59%
COc1ccccc1-c1noc(CCC(=O)NC2CCCC2)n1	13.3%
COc1ccc(/C(N)=N/OC(=O)c2ccc(C)c([N+](=O)[O-])c2)cc1OC	10.1%
N#Cc1ccccc1OCC(=O)Nc1ccc2c(c1)OCCCO2	3.08%
Cc1ccc(Cn2nnnc2CN2CCC(O)(c3ccc(F)cc3)CC2)cc1	-7.64%
O=P(O)(CCc1ccccn1)CN1CCOCC1	6.28%
Cc1cc(=O)oc2cc(NC(=S)NCc3ccccn3)ccc12	-6.91%
Cc1ccc2nc(SCC(=O)N/N=C/c3ccco3)cc(C)c2c1	10.4%
O=[N+]([O-])c1ccc2c(c1)C(O)n1nc(-c3ccccc3)nc1S2 (stereo not shown)	5.13%
